Our source for the total cell number values is the supplement of paper PMC6135742.

Counter-ions that a name gives are not always drawn. ± gives the standard deviation of the averaged measurements. Over roughly 2,600 compounds, “total cell number (DAPI+ nuclei) relative to DMSO vehicle control” has its median near -1.4; the lowest 2% begin near -23. The list shows a part of the results.

In this assay the test system is jimpy (Plp1 jimpy) mouse iPSC-derived oligodendrocyte progenitor cells. In words: total cell number (DAPI+ nuclei) relative to DMSO vehicle control (SDs above negative control mean); higher = more surviving cells. Conditions: 10 µM; 3 days.
With `[Cl-].[Li+]` [Lithium Chloride], the total cell number is -0.282.
The compound `CCn1cc(-c2ccnc3[nH]c(-c4cccc(CN(C)C)c4)cc23)c(-c2ccc(NC(=O)N(C)C)cc2)n1` gave a total cell number of -12.1.
In turn, `CCOc1ccn(-c2ccc(F)cc2)c(=O)c1C(=O)Nc1ccc(Oc2ccnc(N)c2Cl)c(F)c1` showed a total cell number of -2.97.
In the case of `CNC[C@H](O)c1cccc(O)c1` [Phenylephrine HCl] it was -5.88.
In the case of `CNC[C@H](O)c1cccc(O)c1` [Phenylephrine hydrochloride] it was -11.1; in that of `CC(=O)NNC(=O)N1Cc2ccccc2Oc2ccc(Cl)cc21`, -1.06.
Regarding `N[C@@H]1CN(c2c(F)cc3c(=O)c(C(=O)O)cn([C@@H]4C[C@@H]4F)c3c2Cl)CC12CC2` [Sitafloxacin Hydrate], the total cell number is -4.79.
For `COC(=O)c1ccc2c(c1)NC(=O)/C2=C(\Nc1ccc(N(C)C(=O)CN2CCN(C)CC2)cc1)c1ccccc1` [Nintedanib (BIBF 1120)], the total cell number is -23.
`O=C(O[C@@H]1Cc2c(O)cc(O)cc2O[C@@H]1c1cc(O)c(O)c(O)c1)c1cc(O)c(O)c(O)c1` [(-)-Epigallocatechin Gallate] had a total cell number of -0.544.
In the case of `CC(C)C[C@H](NC(=O)CNC(=O)c1cc(Cl)ccc1Cl)B(O)O` it was -12.9.
Turning to `N#C[C@@H]1CCCN1C(=O)CNC12CC3CC(CC(O)(C3)C1)C2` [Vildagliptin (LAF-237)], the total cell number is -0.534.
`CC(C)C[C@H](NC(=O)[C@@H](O)[C@H](N)Cc1ccccc1)C(=O)O` [Bestatin hydrochloride] had a total cell number of -1.64.
In the case of `C=CCc1ccc(O)c(-c2ccc(O)c(CC=C)c2)c1` [Honokiol] it was 1.57; in that of `CNC(=C[N+](=O)[O-])NCCSCc1ccc(CN(C)C)o1` [Ranitidine], -1.44.
In turn, `CNC(=C[N+](=O)[O-])NCCSCc1ccc(CN(C)C)o1` [Ranitidine hydrochloride] showed a total cell number of -0.923.
In the case of `O=C(O)CN(CCOCCOCCN(CC(=O)O)CC(=O)O)CC(=O)O` it was -0.161; in that of `COc1cc2c(cc1OC)-c1cc3ccc(OC)c(OC)c3c[n+]1CC2` [Palmatine chloride], 4.91; in that of `COC(=O)[C@H]1[C@H]2C[C@@H]3c4[nH]c5cc(OC)ccc5c4CCN3C[C@H]2C[C@@H](OC(=O)c2cc(OC)c(OC)c(OC)c2)[C@@H]1OC` [Reserpine], -6.23 ± 7.5.
In the case of `O=C(O)c1ccc(Nc2ncc3c(n2)-c2ccc(Cl)cc2C(c2c(F)cccc2F)=NC3)cc1` it was -13; in that of `Cc1cc(N2CCOCC2)ccc1Nc1nc(NC2CCCCC2)c2[nH]cnc2n1`, -8.65; in that of `C[C@H](NC(=O)Cc1cc(F)cc(F)c1)C(=O)N[C@@H]1C(=O)N(C)c2ccccc2-c2ccccc21`, -6.63.
Compound `O=c1c(-c2ccc(O)cc2)coc2cc(O)cc(O)c12` [Genistein] yielded a total cell number of -2.39 ± 0.072.
Turning to `OCc1ccc(-c2ccc(-c3ccc(CO)s3)o2)s1`, the total cell number was -10.8.
In the case of `COc1cc(C=O)ccc1O` [Vanillin] it was -0.142; in that of `C1=N/C2=N/c3ccc(OCCN4CCCC4)c(c3)COC/C=C/COCc3cccc(c3)C(=C1)N2` [Pacritinib (SB1518)], -16.5; in that of `COc1ccc2cccc(CCNC(C)=O)c2c1` [Agomelatine], -1.71 ± 1.9.
For `C#C[C@]1(O)CC[C@H]2[C@@H]3CCc4cc(OC)ccc4[C@H]3CC[C@@]21C` [Mestranol] the value was 5.55.
In turn, `CN(C)C(=O)c1ccc(S(=O)(=O)c2ccc(NC(=O)[C@@](C)(O)C(F)(F)F)c(Cl)c2)cc1` came in with a total cell number of 5.05.
On to `CC1=C(C)C(=O)C(CCCCC#CCCCC#CCO)=C(C)C1=O`, for which the total cell number was -2.58.
As to `CN(CCOc1ccc(NS(C)(=O)=O)cc1)CCc1ccc(NS(C)(=O)=O)cc1` [Dofetilide], the total cell number is 3.48 ± 2.1.
With `CC(=O)N1CCN(c2ccc(OCC3COC(Cn4ccnc4)(c4ccc(Cl)cc4Cl)O3)cc2)CC1` (stereo unspecified) [Ketoconazole], the total cell number is 1.11 ± 6.6.
For `Cc1[nH]c(/C=C2\C(=O)Nc3ccccc32)c(C)c1CCC(=O)O` [TSU-68 (SU6668, Orantinib)] the value was -0.233; for `CCN(CC)CCCC(C)Nc1c2ccc(Cl)cc2nc2ccc(OC)cc12` (stereo unspecified) [Quinacrine dihydrochloride], -10.2; for `CCN(CC)CCCC(C)Nc1c2ccc(Cl)cc2nc2ccc(OC)cc12` (stereo unspecified) [Quinacrine 2HCl], -14.5.
`CC(C)(C)NS(=O)(=O)c1cncc(-c2cc(F)c3nc(N)nn3c2)c1` gave a total cell number of -0.735.
Regarding `O=C(O)P(=O)(O)O` [Foscarnet Sodium], the total cell number is -2.79.
In the case of `COc1cc2ncnc(Nc3ccc(Cl)cc3F)c2cc1OC` it was -8.14.
`N#Cc1ccc2[nH]c(O)c(-c3ccc(CN4CCOCC4)cn3)c2c1` had a total cell number of -10.6.
In the case of `Cc1ccc(C(=O)NCCCCCC(=O)Nc2ccccc2N)cc1` it was -9.09.
For `CNc1cc(NS(=O)(=O)c2ccc(N)cc2)nc(NC)n1` [Ro 04-6790 dihydrochloride] the value was 0.996; for `Oc1ccc(Nc2nc(-c3ccc(Cl)cc3)cs2)cc1`, -14.4.
`CCN(CC)CCn1c(=O)c(Cc2ccc(OC)cc2)nc2ccccc21` [Caroverine hydrochloride] had a total cell number of -1.32.
For `CO[C@H]1C[C@@H]2CC[C@@H](C)[C@@](O)(O2)C(=O)C(=O)N2CCCC[C@H]2C(=O)O[C@H]([C@H](C)C[C@@H]2CC[C@@H](O)[C@H](OC)C2)CC(=O)[C@H](C)/C=C(\C)[C@@H](O)[C@@H](OC)C(=O)[C@H](C)C[C@H](C)/C=C/C=C/C=C/1C` [Rapamycin (Sirolimus)] the value was -8.86.
In the case of `Nc1nc2ccc(Cl)cc2n2c(-c3ccccc3)nnc12` it was -0.857.
In the case of `C=CCc1cc(OC)c(O)c(C(=O)NCCO)c1` [Alibendol] it was -1.51; in that of `COc1cc2c(CCNC(C)=O)c[nH]c2cc1O` [6-Hydroxymelatonin], -0.826; in that of `C#C[C@]1(O)CC[C@H]2[C@@H]3CCC4=CC(=O)CC[C@@H]4[C@H]3CC[C@@]21C` [Norethindrone], -1.09.
On to `C#C[C@]1(OC(C)=O)CC[C@H]2[C@@H]3CCC4=C[C@@H](OC(C)=O)CC[C@@H]4[C@H]3CC[C@@]21C` [Ethynodiol diacetate], for which the total cell number is -0.24.
For `CC(C)[C@H](C(=O)Nc1ccc(C(=O)NO)cc1)c1ccccc1` the value was -10.8.
For `Nc1ccc(S(=O)(=O)Nc2ncccn2)cc1` [Sulfadiazine] the value was 2.06; for `Nc1ccc(O)c(C(=O)O)c1` [Mesalamine], -13.
